According to patent US20260001928A1 (CORTERIA PHARMACEUTICALS, priority 2022, published 2026):
For at least one compound, name, drawing or mass did not settle the structure. *1 amine or outer side, *2 acyl side, *3 side chain or, on linkers, in order; H or OH if unused. Where a SMILES comes first, the peptide text is derived from it. Side-chain parts run from the residue outwards. [ ]: non-standard residue; d: D form. The star is where a group is joined. C18 diacid = O=C(O)CCCCCCCCCCCCCCCCC(=O)*; C16 diacid = O=C(O)CCCCCCCCCCCCCCC(=O)*; γGlu = O=C(O)[C@H](CCC(=O)[*:2])N[*:1]; Thp = NC1(C(=O)O)CCOCC1; AEEA = NCCOCCOCC(=O)O

What was measured:
human CRF2a receptor = molecular target: T1, human CRF2a receptor (Homo sapiens, UniProt Q13324); assay: Activity at human CRF2a receptor, cAMP functional assay in TeloHEAC cells; type: cell-based; details: TeloHEAC cells stably expressing human CRF2a receptor, relative to urocortin 2 (100 nM = 100%)
T1 construct: expressed in transfected cells; host or cells: TeloHEAC cells
T1 sequence (Q13324 1-411): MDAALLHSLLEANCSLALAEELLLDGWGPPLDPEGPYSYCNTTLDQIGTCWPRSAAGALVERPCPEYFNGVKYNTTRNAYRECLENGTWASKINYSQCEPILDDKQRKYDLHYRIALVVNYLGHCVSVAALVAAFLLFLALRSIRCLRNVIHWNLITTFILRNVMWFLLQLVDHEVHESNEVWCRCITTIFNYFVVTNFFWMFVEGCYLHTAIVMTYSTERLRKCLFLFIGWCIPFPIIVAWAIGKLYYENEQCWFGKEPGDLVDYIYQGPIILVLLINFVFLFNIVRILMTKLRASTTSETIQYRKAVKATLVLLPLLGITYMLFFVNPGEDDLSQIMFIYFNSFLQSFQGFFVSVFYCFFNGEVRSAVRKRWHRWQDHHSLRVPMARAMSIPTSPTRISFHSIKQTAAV
Experimental: Agonism of compounds for human corticotropin-releasing factor 2a (CRF2a receptor) was determined by a functional assay measuring cAMP modulation upon treatment of TeloHEAC cells stably expressing human CRF2a receptor. Compounds were dissolved at 0.5 mM in 100% DMSO and serially diluted (1:2) in 100% DMSO for 16 dilutions. 20 nL of each dilution was then transferred to 384-well assay plate using an acoustic droplet ejection instrument. 5 μL of compound buffer (1×HBSS; 20 mM HEPES,) were then added to each well. Prior to use, frozen cells were thawed quickly at 37° C. and washed (5 min at 900 rpm) with 20 mL cell buffer (1×HBSS; 20 mM HEPES). Cells were resuspended in cell buffer added with 2 mM IBMX and adjusted to a cell density of […]. 5 μL cells (final dell density: 10000 cells/well) were dispensed in the compound-containing 384-well assay plate and incubated for 30 minutes 37° C. The cAMP level in treated cells was determined using the Cisbio 62AM4PEC kit according to manufacturer's instruction. Finally, plates were incubated for 1 h at room temperature before measuring the fluorescence ratio between 665/620 nm. The percent activity value (E %) was calculated by setting 100 nM of urocortin 2 (UCN2) as 100%. The in vitro potency of the compounds was quantified by determining the concentrations that caused 50% activation of maximal response (EC50) relative to urocortin 2.

CFR1R receptor = molecular target: T2, CFR1R receptor (Homo sapiens, UniProt P34998); assay: Activity at anti-target CFR1R receptor, cAMP assay in CRF1R-overexpression CHO-K1 cells; type: cell-based; details: 100% = Sauvagine at 100 nM
T2 construct: host or cells: CHO-K1 (clone 2)
T2 sequence (P34998 24-415): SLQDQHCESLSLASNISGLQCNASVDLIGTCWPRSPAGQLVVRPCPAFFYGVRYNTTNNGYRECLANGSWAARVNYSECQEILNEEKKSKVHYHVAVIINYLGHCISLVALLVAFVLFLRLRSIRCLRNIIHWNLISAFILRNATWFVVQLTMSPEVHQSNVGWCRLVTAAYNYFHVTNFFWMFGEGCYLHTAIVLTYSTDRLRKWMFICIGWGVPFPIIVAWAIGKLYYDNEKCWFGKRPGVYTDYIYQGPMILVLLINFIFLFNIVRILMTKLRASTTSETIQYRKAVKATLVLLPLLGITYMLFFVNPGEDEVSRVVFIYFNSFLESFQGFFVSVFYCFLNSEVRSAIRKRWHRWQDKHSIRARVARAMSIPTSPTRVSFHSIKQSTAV
Experimental: Assessment of activity at anti-target CFR1R receptor is done using the same procedure as the one described for the TeloHEAC cell line. The CRF1R-overexpression CHO-K1 cell line clone 2 was purchased from PerkinElmer. Cells were grown in a 10 cm dish at 37° C./5% CO2 in medium (F12 (Hams)/10% FBS/400 μg/ml G418) to near confluence. At that stage, cells were harvested, resuspended to 10 million/mL in culture medium without G418 and with 10% DMSO. 1 mL vial aliquots were slowly frozen to −80° C. in isopropanol and then transferred in liquid nitrogen for storage. These vials were used to run the experiment following the procedure reported in the previous paragraph, except for the compound used in the control well to define the 100% activation (Sauvagine at 100 nM) and the cell density (final cell density: 4000 cells/well)

EC50 (human CRF2a receptor) [nM] | EC50 (CFR1R receptor) [nM] | SMILES
0.16 | > 250 | CC[C@H](C)[C@H](NC(C)=O)C(=O)N[C@H](C(=O)N[C@@H](CC(C)C)C(=O)N[C@@H](CO)C(=O)N[C@@H](CC(C)C)C(=O)N[C@@H](CC(=O)O)C(=O)N[C@@H](C(=O)N1CCC[C@H]1C(=O)N[C@H](C(=O)N[C@@H](CCCCN)C(=O)N[C@@H](CC(C)C)C(=O)N[C@@H](CCCCNC(=O)CC[C@H](NC(=O)CCCCCCCCCCCCCCCCC(=O)O)C(=O)O)C(=O)N[C@@H](CCCCN)C(=O)N[C@H](C(=O)N[C@@H](CC(C)C)C(=O)N[C@@H](CC(C)C)C(=O)N[C@@H](CCC(=O)O)C(=O)N[C@@H](CCC(N)=O)C(=O)N[C@@H](CCC(=O)O)C(=O)N[C@@H](CCCCN)C(=O)N[C@@H](CCC(N)=O)C(=O)N[C@@H](CCCCN)C(=O)N[C@@H](CCCCN)C(=O)N[C@@H](CCC(N)=O)C(=O)N[C@@H](CCCNC(=N)N)C(=O)N[C@@H](CCC(=O)O)C(=O)N[C@@H](CCC(N)=O)C(=O)N[C@@H](C)C(=O)N[C@@H](CCC(=O)O)C(=O)N[C@H](C(=O)N[C@@H](CC(N)=O)C(=O)NC1(C(=O)N[C@@H](CCC(N)=O)C(=O)N[C@H](C(=O)N[C@@H](CC(C)C)C(=O)N[C@@H](C)C(=O)N[C@@H](CCC(N)=O)C(=O)N[C@H](C(N)=O)C(C)C)[C@@H](C)CC)CCOCC1)[C@@H](C)O)[C@@H](C)CC)[C@@H](C)CC)C(C)C)C(C)C [compound 133] (Ac-IVLSLD[dV]PIKLK([γGlu-C18 diacid])KILLEQEKQKKQREQAETN[Thp]QILAQV-NH2)
0.1 | ≥ 100 | CC[C@H](C)[C@H](N)C(=O)N[C@H](C(=O)N[C@@H](CC(C)C)C(=O)N[C@@H](CO)C(=O)N[C@@H](CC(C)C)C(=O)N[C@@H](CC(=O)O)C(=O)N[C@@H](C(=O)N1CCC[C@H]1C(=O)N[C@H](C(=O)N[C@@H](CCCCN)C(=O)N[C@@H](CC(C)C)C(=O)N[C@@H](CCCCNC(=O)COCCOCCNC(=O)COCCOCCNC(=O)CC[C@H](NC(=O)CC[C@H](NC(=O)CCCCCCCCCCCCCCC(=O)O)C(=O)O)C(=O)O)C(=O)N[C@@H](CCC(N)=O)C(=O)N[C@H](C(=O)N[C@@H](CC(C)C)C(=O)N[C@@H](CC(C)C)C(=O)N[C@@H](CCCCN)C(=O)N[C@@H](CCC(N)=O)C(=O)N[C@@H](CCC(=O)O)C(=O)N[C@@H](CCCNC(=N)N)C(=O)N[C@@H](CCC(N)=O)C(=O)N[C@@H](CCCCN)C(=O)N[C@@H](CCCCN)C(=O)N[C@@H](CCC(N)=O)C(=O)N[C@@H](CCCNC(=N)N)C(=O)N[C@@H](CCC(=O)O)C(=O)N[C@@H](CCC(N)=O)C(=O)N[C@@H](C)C(=O)N[C@@H](CCC(=O)O)C(=O)N[C@@H](CCCCN)C(=O)N[C@@H](CC(N)=O)C(=O)N[C@@H](CCCCN)C(=O)N[C@@H](CCC(N)=O)C(=O)N[C@H](C(=O)N[C@@H](CC(C)C)C(=O)N[C@@H](CCC(=O)O)C(=O)N[C@@H](CCC(N)=O)C(=O)N[C@H](C(N)=O)C(C)C)[C@@H](C)CC)[C@@H](C)CC)[C@@H](C)CC)C(C)C)C(C)C [compound 146] (H-IVLSLD[dV]PIKLK([AEEA-AEEA-γGlu-γGlu-C16 diacid])QILLKQERQKKQREQAEKNKQILEQV-NH2; N-terminus assumed)
0.18 | ≥ 100 | CC[C@H](C)[C@H](N)C(=O)N[C@H](C(=O)N[C@@H](CC(C)C)C(=O)N[C@@H](CO)C(=O)N[C@@H](CC(C)C)C(=O)N[C@@H](CC(=O)O)C(=O)N[C@@H](C(=O)N1CCC[C@H]1C(=O)N[C@H](C(=O)N[C@@H](CCCCN)C(=O)N[C@@H](CC(C)C)C(=O)N[C@@H](CCCCNC(=O)CC[C@H](NC(=O)CC[C@H](NC(=O)CCCCCCCCCCCCCCC(=O)O)C(=O)O)C(=O)O)C(=O)N[C@@H](CCC(N)=O)C(=O)N[C@H](C(=O)N[C@@H](CC(C)C)C(=O)N[C@@H](CC(C)C)C(=O)N[C@@H](CCCCN)C(=O)N[C@@H](CCC(N)=O)C(=O)N[C@@H](CCC(=O)O)C(=O)N[C@@H](CCCNC(=N)N)C(=O)N[C@@H](CCC(N)=O)C(=O)N[C@@H](CCCCN)C(=O)N[C@@H](CCCCN)C(=O)N[C@@H](CCC(N)=O)C(=O)N[C@@H](CCCNC(=N)N)C(=O)N[C@@H](CCC(=O)O)C(=O)N[C@@H](CCC(N)=O)C(=O)N[C@@H](C)C(=O)N[C@@H](CCC(=O)O)C(=O)N[C@@H](CCCCN)C(=O)N[C@@H](CC(N)=O)C(=O)N[C@@H](CCCCN)C(=O)N[C@@H](CCC(N)=O)C(=O)N[C@H](C(=O)N[C@@H](CC(C)C)C(=O)N[C@@H](CCC(=O)O)C(=O)N[C@@H](CCC(N)=O)C(=O)N[C@H](C(N)=O)C(C)C)[C@@H](C)CC)[C@@H](C)CC)[C@@H](C)CC)C(C)C)C(C)C [compound 147] (H-IVLSLD[dV]PIKLK([γGlu-γGlu-C16 diacid])QILLKQERQKKQREQAEKNKQILEQV-NH2; N-terminus assumed)
0.65 | ≥ 100 | CC[C@H](C)[C@H](N)C(=O)N[C@H](C(=O)N[C@@H](CC(C)C)C(=O)N[C@@H](CO)C(=O)N[C@@H](CC(C)C)C(=O)N[C@@H](CC(=O)O)C(=O)N[C@@H](C(=O)N1CCC[C@H]1C(=O)N[C@H](C(=O)N[C@@H](CCCCN)C(=O)N[C@@H](CC(C)C)C(=O)N[C@@H](CCCCNC(=O)COCCOCCNC(=O)COCCOCCNC(=O)CC[C@H](NC(=O)CCCCCCCCCCCCCCC(=O)O)C(=O)O)C(=O)N[C@@H](CCC(N)=O)C(=O)N[C@H](C(=O)N[C@@H](CC(C)C)C(=O)N[C@@H](CC(C)C)C(=O)N[C@@H](CCCCN)C(=O)N[C@@H](CCC(N)=O)C(=O)N[C@@H](CCC(=O)O)C(=O)N[C@@H](CCCNC(=N)N)C(=O)N[C@@H](CCC(N)=O)C(=O)N[C@@H](CCCCN)C(=O)N[C@@H](CCCCN)C(=O)N[C@@H](CCC(N)=O)C(=O)N[C@@H](CCCNC(=N)N)C(=O)N[C@@H](CCC(=O)O)C(=O)N[C@@H](CCC(N)=O)C(=O)N[C@@H](C)C(=O)N[C@@H](CCC(=O)O)C(=O)N[C@@H](CCCCN)C(=O)N[C@@H](CC(N)=O)C(=O)N[C@@H](CCCCN)C(=O)N[C@@H](CCC(N)=O)C(=O)N[C@H](C(=O)N[C@@H](CC(C)C)C(=O)N[C@@H](CCC(=O)O)C(=O)N[C@@H](CCC(N)=O)C(=O)N[C@H](C(N)=O)C(C)C)[C@@H](C)CC)[C@@H](C)CC)[C@@H](C)CC)C(C)C)C(C)C [compound 148] (H-IVLSLD[dV]PIKLK([AEEA-AEEA-γGlu-C16 diacid])QILLKQERQKKQREQAEKNKQILEQV-NH2; N-terminus assumed)
